Measurements: PubChem BioAssay AID485294 (National Center for Advancing Translational Sciences (NCATS), 2010)
The whole screen tested about 370,000 compounds, of which about 150 (0.041%) were called active. This list was built around the results that the source calls inconclusive (neither active nor inactive); the mix of calls is not that of the screen. The call rests on the fitted dose curve; in most records, active means well fitted inhibition curve with a large enough effect; inconclusive means small, poorly fitted or top-dose-only effect; inactive means flat fitted curve, though single readings scatter. No potency is given beside an inconclusive call; the fits are too rough.
Further: nearly all actives have a fitted effect of over 25% in size.
Potency means the concentration at half of the fitted maximal effect; tags describe the fitted curve by direction and shape.
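Wherever activity change, negative = inhibition is given: 0% = no-compound wells and -100% = no-enzyme wells.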

What follows are compounds tested against Beta-lactamase (Escherichia coli (strain K12)) (UniProt P00811) (assay: qHTS Inhibitors of AmpC Beta-Lactamase (assay with detergent)). Settings: AmpC hydrolysis of nitrocefin, absorbance 480 nm, 0.01% Triton; activity change, negative = inhibition: at 114 µM (top of the series).
Sequence of UniProt P00811 (P00811 whole entry, looked up): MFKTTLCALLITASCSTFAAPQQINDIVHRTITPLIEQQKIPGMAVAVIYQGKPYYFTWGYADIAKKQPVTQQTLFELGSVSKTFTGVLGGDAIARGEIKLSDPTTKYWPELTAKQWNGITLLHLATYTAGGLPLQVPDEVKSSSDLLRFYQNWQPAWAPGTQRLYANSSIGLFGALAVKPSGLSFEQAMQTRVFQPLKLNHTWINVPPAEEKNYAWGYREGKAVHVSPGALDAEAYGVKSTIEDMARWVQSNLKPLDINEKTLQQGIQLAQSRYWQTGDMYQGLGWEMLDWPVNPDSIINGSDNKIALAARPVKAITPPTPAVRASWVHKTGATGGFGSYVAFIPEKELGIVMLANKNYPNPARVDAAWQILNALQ
Summary of the method: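 20 mM phosphate pH 7.0 + 0.01% (detergent screen) or 0.0001% Triton X-100; 5.3 nM AmpC reagent; cpd preinc 15 min RT; nitrocefin (800 uM stock) to start; A480 q20 s × 4 min; Activity was normalised to no-enzyme and no-compound control wells.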
`CCCCN1C(=O)C2C(c3ccc(OC)cc3O)NC(CC(C)C)(C(=O)O)C2C1=O` (configuration not stated) was tested, and the Potency was inconclusive [inhibitor, full curve].
`O=[N+]([O-])c1cccc(S(=O)(=O)N2CCCC2)c1` was tested, and the Potency was inconclusive [inhibitor, partial curve, poor fit].
With `O=C(CSc1nc2ccccc2[nH]1)N1c2ccccc2Sc2ccccc21` the Potency was inconclusive [inhibitor, partial curve, poor fit].
In the case of `COc1cc(C2Nc3cccc4cccc(c34)N2)ccc1O`, the Potency is reported as inconclusive [inhibitor, full curve].
In the case of `O=C(c1cc([N+](=O)[O-])cc([N+](=O)[O-])c1)N(Cc1nnc(-c2ccccc2Cl)o1)C1CC1`, the Potency is reported as inconclusive [inhibitor, full curve, poor fit].
`O=C(O)c1cc(N/N=C/c2ccc3c(c2)OCCO3)ccc1Cl` was tested, and the Potency was inconclusive [inhibitor, full curve].
For `Cc1csc(NC(=O)c2ccccc2[N+](=O)[O-])n1`, the Potency was inconclusive [inhibitor, full curve, poor fit].
With `Cc1nn(Cc2ccc(Cl)cc2)c(C)c1NC(=O)CCCn1nc([N+](=O)[O-])c(Cl)c1C` the Potency was inconclusive [inhibitor, full curve, poor fit].
For `CCCCCCCCCCn1cc(C(C)=O)c(=O)[nH]c1=O`, the Potency was inconclusive [inhibitor, partial curve, poor fit].
With `CCN(CC)CCn1c(=N)n(CCOc2ccccc2Cl)c2ccccc21` the “activity change, negative = inhibition” value was inactive: 27.3%.
For `CCCSc1nc(-n2ncc(C#N)c2N)c2c3c(sc2n1)CCC(C)C3` (configuration not stated), the “activity change, negative = inhibition” value was inactive: -9.07%.
For `CSc1cccc(NC(=O)CN(c2cc(C)ccc2C)S(C)(=O)=O)c1`, the Potency was inconclusive [inhibitor, full curve].
For `CCC(CO)NCc1ccc(Br)cc1` (configuration not stated), the “activity change, negative = inhibition” value was inactive: 7.1%.
For `Cc1cccc(C)c1NC(=O)CCCSc1nnc(-c2ccc(F)cc2)n1-c1ccccc1`, the “activity change, negative = inhibition” value was inactive: -11.2%.
In the case of `O=C(CNC1CCCCC1)N1CCc2ccccc2C1`, the Potency is reported as inconclusive [inhibitor, single point].
For `C[C@H]1CN=C2N(CCNC(=O)CCC3CCCCC3)[C@H](Cc3ccc(O)cc3)CN21`, the “activity change, negative = inhibition” value was inactive: 6.1%.
In the case of `COc1cc(CN(C(=O)c2cccs2)C2CCS(=O)(=O)C2)cc(OC)c1OC` (configuration not stated), the Potency is reported as inconclusive [inhibitor, full curve, poor fit].
With `CCCn1cc(CN2CCC(n3nccc3NC(=O)CCOc3ccccc3)CC2)c(C)n1` the Potency was inconclusive [inhibitor, full curve, poor fit].
In the case of `O=C(NC1CCS(=O)(=O)C1)c1ccc(S(=O)(=O)N2CCCC2)cc1` (configuration not stated), the Potency is reported as inconclusive [inhibitor, full curve, poor fit].
For `O=C(Nc1ccc2c(c1)C(=O)OC2)c1ccc(C(F)(F)F)cc1`, the Potency was inconclusive [inhibitor, full curve].
`O=C(/C=C/c1ccccc1Cl)Nc1ccc(-c2nnc3n2CCCCC3)cc1` was tested, and the Potency was inconclusive [inhibitor, full curve, poor fit].
With `O=C(N/N=C/c1cccc2ccccc12)c1cccc(F)c1` the “activity change, negative = inhibition” value was inactive: -7.23%.
For `CNC(=S)NNC(=O)c1ccccc1Br`, the Potency was inconclusive [inhibitor, full curve, poor fit].
In the case of `Cc1ccc2c(c1)C1(OCCCO1)C(=O)N2CC#N`, the Potency is reported as inconclusive [inhibitor, partial curve].
In the case of `COc1cccc(NC(=O)CS(=O)(=O)Cc2nc(-c3ccc(C)cc3)oc2C)c1`, the Potency is reported as inconclusive [inhibitor, partial curve, poor fit].
With `CS(=O)(=O)N(CC(=O)NCCSCc1ccccc1)c1ccccc1Cl` the Potency was inconclusive [inhibitor, full curve, poor fit].
In the case of `CCCSC1=C(C#N)C(c2cccnc2)C(C(=O)OCC)=C(c2ccccc2)N1` (configuration not stated), the Potency is reported as inconclusive [inhibitor, partial curve].
`COc1ccc(CCCC(=O)N/N=C/c2cccc(OC)c2O)cc1C` was tested, and the Potency was inconclusive [inhibitor, single point].
With `CC(C)OC(=O)c1c(N)n(CC2CCCO2)c2nc3ccccc3nc12` (configuration not stated) the Potency was inconclusive [inhibitor, full curve, poor fit].
For `CC(=O)N1CCSc2ccc(S(=O)(=O)NCCc3cccc(C)c3)cc21`, the Potency was inconclusive [inhibitor, partial curve, poor fit].
For `CCOC(=O)C1CCCN(c2ncnc3c2oc2ccccc23)C1` (configuration not stated), the Potency was inconclusive [inhibitor, full curve].
In the case of `N#Cc1c(SCC(=O)Nc2nc3ccc(Br)cc3s2)sc2c(O)cc(=O)[nH]c12`, the “activity change, negative = inhibition” value is reported as inactive: 3.46%.
`CCN(CC)C(=O)c1ccc(-c2cccs2)s1` was tested, and the Potency was inconclusive [inhibitor, single point].
For `Cc1cc(C)cc(OCC(=O)N(Cc2ccc(Cl)cc2)C2CCS(=O)(=O)C2)c1` (configuration not stated), the “activity change, negative = inhibition” value was inactive: -9.81%.
`Cc1ccc(C)c(N2CCN(c3nc4ccccc4c(=O)n3Cc3ccccc3)CC2)c1` was tested, and the Potency was inconclusive [inhibitor, full curve].
For `COc1ccc(-c2nc(CC(=O)O)cs2)cc1`, the Potency was inconclusive [inhibitor, full curve, poor fit].
In the case of `Cc1cc(C)c2c(c1)cc(C)c1nnc(SCC(=O)Nc3ccccc3N3CCOCC3)n12`, the Potency is reported as inconclusive [inhibitor, partial curve].
For `Cc1c(NS(=O)(=O)c2cc(NC(=O)CCN3CCCC(C)C3)ccc2Cl)c(=O)n(-c2ccccc2)n1C` (configuration not stated), the Potency was inconclusive [inhibitor, partial curve, poor fit].
`COc1ccc(N(CC(=O)N2CCc3ccccc3C2)S(C)(=O)=O)cc1OC` was tested, and the Potency was inconclusive [inhibitor, single point].
For `O=C(CSc1nnc(NC(=O)c2c(F)cccc2F)s1)NC1CC1`, the “activity change, negative = inhibition” value was inactive: -2.53%.
For `COc1ccc(/C(N)=N/OC(=O)c2ccco2)cc1`, the Potency was inconclusive [inhibitor, full curve, poor fit].
`COc1ccccc1CCNC(=O)COc1cccc2c1OC(C)(C)C2` was tested, and the Potency was inconclusive [inhibitor, full curve, poor fit].
For `CCN1CCN(CC(O)COc2cccc(OC)c2)CC1` (configuration not stated), the Potency was inconclusive [inhibitor, full curve, poor fit].
`O=S(=O)(Nc1ccncc1)c1ccc(Cl)cc1` was tested, and the Potency was inconclusive [inhibitor, single point].
`CC(OC(=O)Cn1[nH]c(=O)c2ccccc2c1=O)C(=O)NC1(C#N)CCCCC1` (configuration not stated) was tested, and the Potency was inconclusive [inhibitor, full curve, poor fit].
In the case of `CCN(CC)CCn1c2c(c(SCC(=O)Nc3cccc4ccccc34)nc1=O)CCCC2`, the Potency is reported as inconclusive [inhibitor, full curve, poor fit].
With `Cc1cccc(C)c1C(=NCCCN(C)C)c1ccccc1` the Potency was inconclusive [inhibitor, full curve, poor fit].
For `COc1ccc(Nc2nc3ccccc3n3nnnc23)cc1`, the Potency was inconclusive [inhibitor, single point].
`C[C@H]1CN=C(N(C)C)N1CC1CCC(C(C)(C)C)CC1` (some centres not stated) was tested, and the Potency was inconclusive [inhibitor, full curve, poor fit].
With `Cc1ccc(-c2nnn(CC(=O)N(CC(=O)NCC3CCCO3)c3ccc(F)c(Cl)c3)n2)o1` (configuration not stated) the Potency was inconclusive [inhibitor, single point].
With `COCCn1c(SCC(=O)OC(C)C)nnc1-c1ccccc1` the Potency was inconclusive [inhibitor, full curve, poor fit].
In the case of `COc1ccc(-c2cc(C(=O)O)sc2C)cc1`, the Potency is reported as inconclusive [inhibitor, single point].
For `CC(=O)Oc1ccc(C(=O)Nc2ccc3c(c2)OCCO3)cc1`, the Potency was inconclusive [inhibitor, full curve, poor fit].
`Cc1ccccc1-c1nc(CS(=O)CC(=O)NCc2ccccn2)c(C)o1` (configuration not stated) was tested, and the Potency was inconclusive [inhibitor, partial curve, poor fit].
`Cc1ccc(C(C)C)c(OCc2ccc(C(=O)N/N=C/c3ccc(O)c(O)c3)cc2)c1` was tested, and the “activity change, negative = inhibition” value was inactive: 17.2%.
In the case of `O=C(O)/C(=C\c1cccc(O)c1)c1ccc(S(=O)(=O)N2CCCC2)s1`, the Potency is reported as inconclusive [inhibitor, partial curve, poor fit].
In the case of `Cn1cc(S(=O)(=O)N2CCc3ccccc3C2)c(=O)n(C)c1=O`, the Potency is reported as inconclusive [inhibitor, full curve].
For `CC(=O)c1ccc(NC(=O)CSc2nc(=O)n(CCN3CCOCC3)c3c2CCC3)cc1`, the Potency was inconclusive [inhibitor, full curve, poor fit].
`CN(CC(=O)Nc1ccc(S(=O)(=O)N2CCCC2)cc1)Cc1ccc(Cl)cc1Cl` was tested, and the Potency was inconclusive [inhibitor, full curve, poor fit].
For `CCOc1c(S(=O)(=O)NC2CC(C)(C)NC(C)(C)C2)ccc(Cl)c1Cl`, the Potency was inconclusive [inhibitor, single point].
For `O=C(NCc1ccco1)C(c1cccnc1)N(C(=O)Cn1nnc2ccccc21)c1ccccc1` (configuration not stated), the Potency was inconclusive [inhibitor, full curve, poor fit].
With `CC(C)c1ccc2c(c1)[C@H]1OCC[C@H]1[C@@H](c1cccs1)N2` the Potency was inconclusive [inhibitor, single point].
